Source: the supplement of paper PMC7826260
The list shows a part of the results. The data describe in vitro nicking of single-stranded DNA by Rep domains (3 µM enzyme, 1 h, 37 °C); shown is the middle of each 90-letter strand. A value is the log2 ratio of uncut reads to the pool without enzyme; uncut sequences lie near 0, cut ones below; no hit call is given. Counts are relative to all reads, so uncut sequences can rise above 0 when many others are cut.

Tests used:
Assay in all cases: uncleaved DNA left, log2 of reads against the no-enzyme library (log2 ratio); higher = less cleavage (more negative = more Rep cleavage of the k-mer); sequences stand for … in CTCGTCCG…ACCGGAGA
[1] = test system: T1, Rep nickase domain of Muscovy duck circovirus
T1 sequence (residues 1-111, tag not shown): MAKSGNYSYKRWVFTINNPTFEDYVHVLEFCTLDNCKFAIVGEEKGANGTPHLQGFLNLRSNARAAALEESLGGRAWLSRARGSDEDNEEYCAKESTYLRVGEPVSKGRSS
Description: (§1)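 A pool of 90-nt single-stranded DNAs with seven random bases just before the constant AC of the nick site (name = the seven bases) was cut by 3 µM recombinant His6-SUMO-tagged Rep nickase domain (300 nM DNA, 50 mM HEPES pH 8.0, 50 mM NaCl, 1 mM MnCl2, 1 h, 37 °C, three replicates). Uncut DNA was amplified and sequenced.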

[2] = test system: T2, Rep nickase domain of banana bunchy top virus
T2 sequence (residues 1-94, tag not shown): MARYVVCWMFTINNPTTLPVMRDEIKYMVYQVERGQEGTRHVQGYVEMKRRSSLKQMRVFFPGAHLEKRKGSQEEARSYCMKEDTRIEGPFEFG
Description: as §1

[3] = test system: T3, Rep nickase domain of cabbage leaf curl virus
T3 sequence (residues 1-116, tag not shown): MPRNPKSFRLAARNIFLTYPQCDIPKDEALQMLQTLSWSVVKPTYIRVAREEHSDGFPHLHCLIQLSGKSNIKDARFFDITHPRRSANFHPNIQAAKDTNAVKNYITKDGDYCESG
Description: as §1

[4] = test system: T4, Rep nickase domain of chickpea chlorotic dwarf virus
T4 sequence (residues 1-124, tag not shown): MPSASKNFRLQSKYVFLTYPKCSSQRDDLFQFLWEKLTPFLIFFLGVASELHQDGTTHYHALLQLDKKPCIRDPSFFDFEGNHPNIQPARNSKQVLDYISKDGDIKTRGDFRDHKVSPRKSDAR
Description: as §1

[5] = test system: T5, Rep nickase domain of faba bean necrotic yellows virus
T5 sequence (residues 1-98, tag not shown): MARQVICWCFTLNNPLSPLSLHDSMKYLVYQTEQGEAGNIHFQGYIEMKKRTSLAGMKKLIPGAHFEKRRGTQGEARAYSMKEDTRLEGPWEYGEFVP
Description: as §1

[6] = test system: T6, Rep nickase domain of maize striate mosaic virus
T6 sequence (residues 1-117, tag not shown): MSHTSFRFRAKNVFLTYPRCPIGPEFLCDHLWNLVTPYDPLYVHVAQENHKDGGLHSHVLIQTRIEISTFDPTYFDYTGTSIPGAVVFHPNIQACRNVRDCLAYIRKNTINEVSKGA
Description: as §1

[7] = test system: T7, Rep nickase domain of porcine circovirus 2
T7 sequence (residues 2-116, tag not shown): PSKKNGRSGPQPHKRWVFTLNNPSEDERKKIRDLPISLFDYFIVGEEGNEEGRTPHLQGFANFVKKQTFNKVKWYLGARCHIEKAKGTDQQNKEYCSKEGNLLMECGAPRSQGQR
Description: as §1

[8] = test system: T8, Rep nickase domain of tomato golden mosaic virus
T8 sequence (residues 1-124, tag not shown): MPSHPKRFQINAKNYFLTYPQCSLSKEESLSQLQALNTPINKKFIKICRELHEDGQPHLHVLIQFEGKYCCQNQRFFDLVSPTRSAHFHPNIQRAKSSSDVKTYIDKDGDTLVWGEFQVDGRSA
Description: as §1

[9] = test system: T9, Rep nickase domain of tomato yellow leaf curl virus
T9 sequence (residues 1-136, tag not shown): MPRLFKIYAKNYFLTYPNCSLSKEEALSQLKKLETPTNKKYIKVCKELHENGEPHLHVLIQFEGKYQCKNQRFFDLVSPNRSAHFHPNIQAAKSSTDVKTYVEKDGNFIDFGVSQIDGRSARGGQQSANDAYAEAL
Description: as §1

[10] = test system: T10, Rep nickase domain of wheat dwarf virus
T10 sequence (residues 1-137, tag not shown): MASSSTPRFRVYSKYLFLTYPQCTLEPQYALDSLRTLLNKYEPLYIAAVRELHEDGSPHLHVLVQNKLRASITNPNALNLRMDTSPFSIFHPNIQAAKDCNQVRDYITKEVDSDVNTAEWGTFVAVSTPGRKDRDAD
Description: as §1

Row | Sequence | uncleaved DNA left (log2) [1] | uncleaved DNA left (log2) [2] | uncleaved DNA left (log2) [3] | uncleaved DNA left (log2) [4] | uncleaved DNA left (log2) [5] | uncleaved DNA left (log2) [6] | uncleaved DNA left (log2) [7] | uncleaved DNA left (log2) [8] | uncleaved DNA left (log2) [9] | uncleaved DNA left (log2) [10]
1 | GGCCCCG | 0.0639 | 0.0199 | 0.032 | 0.134 | 0.0496 | -0.108 | -0.00379 | 0.0904 | 0.0786 | 0.123
2 | GTTATCA | -0.0477 | 0.112 | 0.364 | 1.02 | 0.00295 | 1.88 | 0.043 | 0.131 | 0.0974 | 0.143
3 | CAGTGTG | -0.045 | -0.0515 | -0.747 | 0.131 | -0.0621 | -0.621 | -0.0543 | -0.144 | 0.118 | 0.0101
4 | GCGGGCT | 0.0757 | 0.125 | 0.744 | 1.5 | 0.0807 | 1.89 | 0.162 | 0.123 | -0.00665 | 0.0298
5 | TAATAAG | 0.0636 | -0.0666 | -1.25 | -1.85 | 0.00255 | -1.2 | 0.104 | 0.0168 | -0.0167 | -0.0741
6 | ATTTCTG | -0.0546 | 0.000143 | -0.073 | 0.161 | 0.0067 | 0.0509 | 0.102 | -0.000564 | 0.0108 | 0.0369
7 | TACTGTA | -1.01 | -0.145 | -0.0675 | -0.868 | -0.00715 | 0.659 | -2.79 | -0.127 | -0.00742 | 0.064
8 | TGGGCCT | 0.00367 | 0.0582 | 0.693 | 1.53 | 0.0584 | 2.02 | 0.0398 | -0.0834 | 0.000365 | 0.116
9 | AAAGGGG | 0.13 | 0.0931 | 0.365 | 0.996 | 0.0866 | 0.684 | 0.357 | 0.217 | 0.073 | 0.201
10 | CGTCGCA | -0.0618 | 0.00866 | -0.0983 | -0.066 | -0.0116 | -0.23 | 0.145 | 0.0405 | 0.0358 | 0.141
11 | ACCGTTC | -0.119 | -0.138 | -0.357 | -0.724 | -0.0775 | -0.939 | -0.162 | -0.115 | -0.177 | -0.261
12 | TTAATCG | 0.0963 | 0.0445 | -0.798 | -0.322 | 0.0416 | -1.21 | 0.117 | 0.0254 | -0.0212 | -0.0081
13 | GCGTAGG | 0.123 | 0.00838 | 0.139 | 0.701 | -0.000939 | 0.542 | 0.0823 | 0.0273 | 0.0445 | -0.00302
14 | TGGCGCA | -0.0311 | -0.0536 | -0.148 | -0.238 | -0.0611 | -0.294 | -0.0619 | 0.115 | -0.176 | -0.107
15 | AATTAGT | -3.92 | -3.99 | -1.04 | -2.28 | -0.304 | -1.5 | -4.11 | -0.258 | -0.0972 | -0.298
16 | TTCAACT | -0.097 | -0.132 | -0.0487 | -2.65 | -0.0883 | -0.299 | -0.562 | -0.017 | -0.0284 | -0.0968
17 | TGCGACG | -0.105 | -0.135 | -0.199 | 0.481 | -0.151 | 1.43 | -0.107 | -0.115 | -0.253 | -0.0428
18 | CTATACG | -0.0395 | -0.0747 | -0.799 | -0.219 | 0.121 | -1.05 | 0.221 | -0.0785 | 0.0976 | -0.156
19 | AACCACG | -0.0615 | -0.116 | -0.957 | -0.276 | -0.0741 | -0.985 | -0.371 | -0.0616 | -0.0258 | -0.128
20 | CCCTAAT | -2.14 | -0.166 | -0.275 | -1.08 | -0.138 | -0.7 | -3.2 | -0.195 | -0.127 | -0.146
21 | GCACCTC | 0.0071 | -0.131 | 0.0725 | 0.459 | 0.00234 | 0.549 | -0.00516 | -0.0109 | 0.041 | 0.128
22 | CAGGATG | 0.345 | 0.219 | 0.261 | 0.877 | 0.336 | 0.35 | 0.322 | 0.375 | 0.155 | 0.293
23 | ATGCCGA | -0.0427 | -0.0588 | -0.348 | -0.405 | 0.117 | -1.07 | 0.0488 | -0.00186 | -0.134 | -0.0406
24 | GTGTCAC | -0.0496 | -0.00195 | 0.195 | 0.958 | -0.0706 | 1.8 | -0.0448 | 0.0637 | -0.0924 | 0.142
25 | CCAATCT | -0.042 | -0.0567 | -0.438 | -1.59 | -0.0365 | -0.346 | -0.068 | -0.0076 | 0.0392 | -0.105
26 | GCGACGG | -0.038 | 0.0198 | 0.0741 | 0.678 | -0.0465 | 1.73 | 0.115 | 0.13 | 0.031 | 0.0107
27 | CTGTGGG | 0.0959 | -0.0751 | -0.592 | -0.569 | 0.0399 | -1.03 | 0.137 | -0.0666 | -0.0599 | -0.0429
28 | GTGATTG | 0.0351 | 0.00614 | -0.068 | 0.699 | -0.0736 | 1.42 | 0.123 | 0.0578 | 0.0213 | 0.113
29 | ATACGTT | 0.0273 | -0.148 | -1.24 | -2.75 | -0.0258 | -0.933 | -0.374 | -0.0472 | -0.219 | -0.6
30 | CCATGGA | 0.136 | 0.111 | -0.199 | -0.14 | 0.151 | -0.825 | 0.12 | 0.0882 | 0.0891 | 0.119
